The campaign covered roughly 310,000 compounds. About 14,000 (4.5%) showed an effect of 50% or more. The effect is printed as a negative number. Some of the results follow.
Biological target: human ether-à-go-go-related gene (hERG) potassium channel (human, UniProt Q12809)
Experiment: primary screen, population patch clamp on CHO cells stably expressing hERG
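Note: peak tail current of the secondary pulse compared with the same well before compound.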

Chain of human ether-à-go-go-related gene (hERG) potassium channel (Q12809 whole entry, looked up): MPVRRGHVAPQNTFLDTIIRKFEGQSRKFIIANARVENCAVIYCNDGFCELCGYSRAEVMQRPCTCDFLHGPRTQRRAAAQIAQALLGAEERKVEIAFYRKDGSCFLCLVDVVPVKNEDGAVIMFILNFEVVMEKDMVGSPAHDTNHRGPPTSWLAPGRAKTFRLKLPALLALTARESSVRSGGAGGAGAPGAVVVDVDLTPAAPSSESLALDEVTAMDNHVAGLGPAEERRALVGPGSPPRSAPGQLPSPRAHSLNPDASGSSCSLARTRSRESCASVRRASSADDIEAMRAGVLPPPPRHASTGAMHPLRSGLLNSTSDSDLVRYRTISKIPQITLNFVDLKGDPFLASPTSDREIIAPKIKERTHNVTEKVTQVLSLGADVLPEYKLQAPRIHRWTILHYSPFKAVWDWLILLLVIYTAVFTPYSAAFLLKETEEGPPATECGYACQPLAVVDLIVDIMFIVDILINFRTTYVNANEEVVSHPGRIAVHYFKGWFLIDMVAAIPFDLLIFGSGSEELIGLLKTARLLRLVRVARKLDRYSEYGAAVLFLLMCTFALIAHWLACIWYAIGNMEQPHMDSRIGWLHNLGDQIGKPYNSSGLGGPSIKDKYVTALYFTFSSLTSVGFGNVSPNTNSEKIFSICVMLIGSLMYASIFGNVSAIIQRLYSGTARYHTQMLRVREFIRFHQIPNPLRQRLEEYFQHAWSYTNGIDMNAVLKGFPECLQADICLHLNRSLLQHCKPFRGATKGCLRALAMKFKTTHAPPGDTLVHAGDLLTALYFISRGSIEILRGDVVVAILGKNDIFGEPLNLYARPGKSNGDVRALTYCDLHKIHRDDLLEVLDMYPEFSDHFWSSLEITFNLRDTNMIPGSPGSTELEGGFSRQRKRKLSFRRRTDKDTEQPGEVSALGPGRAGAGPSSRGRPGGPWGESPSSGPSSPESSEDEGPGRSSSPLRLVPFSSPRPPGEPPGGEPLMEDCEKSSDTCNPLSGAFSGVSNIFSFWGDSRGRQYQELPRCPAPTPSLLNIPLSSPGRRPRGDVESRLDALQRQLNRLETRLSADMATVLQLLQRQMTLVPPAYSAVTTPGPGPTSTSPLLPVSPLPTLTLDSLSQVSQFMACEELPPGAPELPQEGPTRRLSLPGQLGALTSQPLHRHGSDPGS

Row | Compound | hERG current change (%, negative = inhibition) at 10uM [%]
1 | CCOc1ncccc1C(=O)OCc1ccc(C(=O)OC)o1 | 5.35
2 | Cc1cc(C(=O)COC(=O)Cc2ccc(Br)cc2)c(C)n1C | 8.24
3 | CCC(C)NC(=O)C(CCSC)NC(=O)c1ccccc1 (centres unmarked) | 10.4
4 | CCc1nccn1C(=O)c1cnn2c(C(F)F)cc(-c3ccccc3)nc12 | 10.8
5 | CCCC1C(c2ccc(OC)cc2)C(C#N)(C#N)C2(C#N)CC1(N)NC2=O (centres unmarked) | -6.78
6 | CC(C)NS(=O)(=O)c1ccc(OCC(=O)NCc2ccco2)cc1 | 0.267
7 | CSc1ncccc1C(=O)N1CCN(S(=O)(=O)c2cc(C)ccc2C)CC1 | -11.3
8 | CC(C)CN1CN(Cc2ccco2)CNC1=S | -9.58
9 | Cc1ccn(C(C)CC(=O)Nc2ccc(-c3ccno3)cc2)n1 (centres unmarked) | 5.38
10 | O=C(CSc1nnc(SCc2ccc(Cl)cc2)s1)N1CCOCC1 | 5.64
11 | COc1cccc(CNC(=O)CN(C)S(=O)(=O)c2cccc3cccnc23)c1 | 3.54
12 | CCCN(CCC)CCNC(=S)Nc1ccc2nc3n(c(=O)c2c1)CCCCC3 | -17
13 | CCCC(CCC)C(=O)NC1CCN(Cc2ccccc2)CC1.Cl | -7.76
14 | CN(C)CCCN1C(=O)C2CCc3[nH]c4ccccc4c3C2C1=O (centres unmarked) | 15.3
15 | CCCC(CCC(=O)Nc1cccc([N+](=O)[O-])c1)C(=O)O (centres unmarked) | -0.0899
16 | O=C1c2cccc(OCc3ccc(F)cc3)c2CCN1Cc1ccc(F)cc1 | 0.623
17 | Cc1ccccc1OCC(=O)Nc1ccc2c(c1)OCO2 | -7.9
18 | N/C(=N\OC(=O)Cc1ccccc1[N+](=O)[O-])c1ccncc1 | 3.96
19 | COc1ccc(C(CNC(=O)c2cc(C)on2)N(C)C)cc1 (centres unmarked) | 22.1
20 | O=C(NC1CC1)c1ccc(CSCc2cccc(F)c2)o1 | -18.3
21 | COc1ccc(C(CNC(=O)c2ccc(N3CCCC3=O)cc2)N(C)C)cc1 (centres unmarked) | -2.32
22 | CCC(=O)Nc1ccc(NC(=O)CSc2nnc(C(C)C)n2C)cc1 | 11.8

Row | Compound | hERG current change (%, negative = inhibition) at 10uM [%]
23 | O=C(NCCN1C(=O)CSC1=O)c1ccccc1 | 16.5
24 | CC(C)(C)NC(=O)c1oc2ccccc2c1COc1ccccc1 | 13.6
25 | FC(F)(F)c1ccc(/C=N/n2c(C3CCCCC3)n[nH]c2=S)cc1 | 11.8
26 | CCOC(=O)[C@@H]1[C@H]2COc3ccc(Br)cc3[C@@H]2N2C(=O)N(c3ccc(Br)cc3)C(=O)[C@]12C | 13
27 | COc1ccc(NC(=O)C(CC(C)C)NC(=O)C2CCC(C)CC2)c(OC)c1 (centres unmarked) | -5.41
28 | Nc1cc(Cl)nc(N/N=C/c2ccc([N+](=O)[O-])cc2)n1 | 0.056
29 | CCn1c(C(c2ccccc2)c2ccccc2)n[nH]c1=S | 9.15
30 | CC(=O)c1ccc(NC(=O)C2CCN(S(=O)(=O)c3cccc4cccnc34)CC2)cc1 | -0.886
31 | O=C1CC(N2CCCCC2)C(=O)N1c1ccccc1 (centres unmarked) | -3.42
32 | CC(C)(C)c1cc[n+](-c2[nH]c(=O)sc2/C=N/N=C(\[O-])c2ccccc2)cc1 | 10.1
33 | O=C(CSc1nnc2c(Cl)cc(C(F)(F)F)cn12)NCc1ccc(F)cc1 | -4.27
34 | CCOC(=O)N1C(=O)C2(CCCCC2)N(c2ccccc2Cl)C1=S | -7.73
35 | O=CN1CCN(C(=O)c2cccc3c2-c2ccccc2C3=O)CC1 | -12.9
36 | CCOc1cc(/C=N\NC(=O)c2ccc(C)nc2)ccc1OC(=O)c1ccc(F)cc1 | 15.4
37 | CCN(CC)S(=O)(=O)c1ccc(-c2nnc(SCC(=O)Nc3ccc4c(c3)OCO4)o2)cc1 | 7.11
38 | CN(C)Cc1c(O)ccc2c(=O)c(-c3ccccc3Cl)coc12 | 9.82
39 | Cc1cccn2c(=O)c(/C=C(\C#N)C(=O)NCc3ccco3)c(N3CCCCCC3)nc12 | -36.5
40 | CCOc1ccc(/C(O)=C2\C(=O)C(=O)N(CCOCCO)C2c2ccccc2OC)cc1 (centres unmarked) | 2.11
41 | CCc1ccc2oc(C(=O)NCc3ccc(S(N)(=O)=O)cc3)c(C)c2c1 | 15
42 | C/C(=N/NC(=O)c1ccco1)c1cccc(NC(=O)c2ccc(C)s2)c1 | 1.1
43 | Cc1csc(NC(=O)CSc2ncnc3c2cnn3-c2ccccc2Cl)n1 | -17.4
44 | Cc1oc2ccc(OCc3ccc(Br)cc3)cc2c1C(=O)O | 44.2

Row | Compound | hERG current change (%, negative = inhibition) at 10uM [%]
45 | CC(CCc1ccccc1)NC(=O)COC(=O)c1cccc2ccccc12 (centres unmarked) | 1.44
46 | O=C(O)c1cc(S(=O)(=O)NC23CC4CC(CC(C4)C2)C3)ccc1Cl | 14
47 | Cc1ccc(S(=O)(=O)N2CCOCC2)cc1C(=O)NCc1ccco1 | -4.95
48 | COC(=O)[C@@]12CCCN1[C@H](c1ccc(-c3cccc(Cl)c3)c(OC)c1)[C@H]1C(=O)N(C)C(=O)[C@H]12.O=C(O)C(F)(F)F | -39.8
49 | COc1ccc(OCCCC(=O)Nc2ccc(S(=O)(=O)N3CCOCC3)cc2)cc1 | 0.442
50 | COc1ccc(CC(=O)N(C)C2CCCCC2)cc1S(=O)(=O)N1CCOCC1 | 9.3
51 | O=S(=O)(c1ccc(Cl)cc1)N1CCN(c2ccccn2)CC1 | -4.62
52 | CCOC(=O)c1c(/N=C/c2cccc([N+](=O)[O-])c2O)sc2c1CCC2 | 4.23
53 | O=C(c1cc2c(s1)CCCC2)N1CCN(C(=O)C2CCCO2)CC1 (centres unmarked) | -1.97
54 | CC/C(=N\Nc1ccccc1)c1c(O)n(C)c(=O)n(C)c1=O | 3.43
55 | Cc1ccnn1CCC(=O)N1CCCC(CCC(=O)NCc2ccccc2F)C1 (centres unmarked) | -6.16
56 | O=C(c1cc(F)ccc1F)C1CCCN(C(=O)CCCN2CCCCC2=O)C1 (centres unmarked) | -1.03
57 | CC(C)COc1ccc(C/C(N)=N/n2cnnc2)cc1 | 30.4
58 | O=C(Nc1cnn(C23CC4CC(CC(C4)C2)C3)c1)c1cnn2cccnc12 | -9.81
59 | COC(=O)c1ccc(COC(=O)C23CC4CC(CC(O)(C4)C2)C3)o1 | -0.467
60 | Cc1ccc(-c2nnc(N3CCN(C(=O)CN4CCOCC4)CC3)c3ccccc23)cc1 | -31.5
61 | Cc1ccccc1C(=O)OCn1nnc2ccccc2c1=O | -2.01
62 | Cn1c(O)c(C(=Nc2ccccc2)SCc2ccccc2Cl)c(=O)n(C)c1=O | 21.5
63 | COc1ccc(-c2nc(-c3ccc(Br)o3)no2)cc1 | 13
64 | Nc1nc(SCC(=O)Nc2ccccc2Sc2ccccc2)n[nH]1 | -6.57
65 | Cc1ccn2c(NC(=O)C(C)(C)Oc3ccc(Cl)cc3)c(-c3cccs3)nc2c1 | -10.3
66 | CC(=O)c1ccc(NC(=S)NCC(c2ccco2)N2CCCC2)cc1 (centres unmarked) | 5.22

Row | Compound | hERG current change (%, negative = inhibition) at 10uM [%]
67 | N#Cc1ccccc1NC(=O)Nc1ccc(Cl)cc1 | 1.16
68 | O=C(CN1CCC(NC(=O)C2CCCCC2)CC1)NCc1ccco1 | -3.83
69 | Cc1ccccc1N=Cc1c(O)n(-c2nccs2)c(=O)c2ccccc12 | -0.537
70 | Cc1cc(=O)oc2c3c(cc(OCC(=O)NCC(=O)O)c12)OC(C)(C)CC3 | 19
71 | COCCN1C(=O)N[C@@H](CCc2ccccc2)[C@@H](C(=O)OC)[C@H]1C | 2.15
72 | CN(C)CCCN(C(=O)c1ccc(S(=O)(=O)N2CCc3ccccc32)cc1)c1nc2c(Cl)cccc2s1.Cl | -27.6
73 | S=c1[nH]nc(-c2ccncc2)n1/N=C/c1cn(-c2ccccc2)nc1-c1ccccc1 | 8.27
74 | Nc1nonc1-n1nnc(C(=O)N/N=C/c2ccc3c(c2)OCO3)c1CSc1ccccc1 | 18.9
75 | COc1ccc(Cl)cc1NC(=O)CN(C)C(=O)c1ccc2c(c1)CC(c1ccccc1)OC2=O (centres unmarked) | -41.8
76 | O=C1NC2(CCCCCC2)C(=O)N1CCS(=O)(=O)Oc1ccccc1 | 1.12
77 | CCOC(=O)c1nc(NCc2ccccc2)c2ccccc2n1 | -20.6
78 | CCOc1cccc(C(=O)N(Cc2cccc(F)c2)C2CCS(=O)(=O)C2)c1 (centres unmarked) | -3.61
79 | CCCSc1cc(NCCOC(=O)CCC)c([N+](=O)[O-])c2nonc12 | -28.7
80 | O=C1CC(N2CCCN(C3CC(=O)N(c4ccc(F)cc4)C3=O)CC2)C(=O)N1c1ccc(F)cc1 (centres unmarked) | -43
81 | N=C1/C(=C\c2ccc(-c3cccc(Cl)c3)o2)C(=O)N=C2SC=C(c3ccccc3)N12 | -12.5
82 | COC(=O)/C=C/c1cnc[nH]1 | 21.5
83 | CCC(C(=O)NC1CC1)n1nc(C)c2c(C)n(-c3ccccc3)nc2c1=O (centres unmarked) | 8.02
84 | COC(=O)c1ccc(Oc2nc(N(C)C)nc(N3CCOCC3)n2)cc1 | 9.23
85 | CC(NC(=O)/C(C#N)=C/c1ccco1)c1ccccc1 (centres unmarked) | -9.97
86 | COc1ccc(S(=O)(=O)c2snnc2C)cc1 | 6.22

— PMC4336329 (PLoS ONE, 2015)
